Experimental data: the RNAGym collection of RNA variant scans (doi:10.1073/pnas.2313332121)
Variants at the floor of the assay are shown more often than the library holds them.

B1: TPR 5TU (parent)
chain: GGAUCUUCUCGAUCUAACAAAAAAGACAAAUCUGCCACAAAGCUUGAGAGCAUCUUCGGAUGCAGAGGCGGCAGCCUUCGGUGGCGCGAUAGCGCCAACGUUCUCAACUAUGACACGCAAAACGCGUGCUCCGUUGAAUGGAGUUUAUCAUG

Variants of: B1
Assay: polymerase ribozyme fitness, log enrichment relative to wild type (log ratio); higher = more active; in vitro selection for triplet polymerase activity
Procedure, shortened: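 Mutant libraries of each subunit of a heterodimeric triplet polymerase ribozyme were built by PCR and transcribed. Each library went through one round of in vitro selection in triplicate: annealing with biotinylated primer, partner subunit and triplets, frozen incubation at −7 °C, gel excision of extended constructs, streptavidin-bead capture and RT-PCR. Input and output libraries were Illumina-sequenced; only genotypes with ≥10 input reads and ≥1 read per output were kept. Fitness is log2(genotype enrichment/wild-type enrichment), using inverse-variance-weighted replicate averages.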

Row | Variant | polymerase ribozyme fitness (log ratio)
1 | A3G C69A A89G C116A A138G | ≤ -4.2
2 | A3U C14U A47C U53A C85U C99U | ≤ -4.2
3 | A3C C18U C85A A106C G140C | ≤ -4.2
4 | A3C U31G U56G C93G C96G G133C | ≤ -4.2
5 | A3G G50A U77A G88A | ≤ -4.2
6 | A3U C14U A37C C63U G136U A147C | ≤ -4.2
7 | A3G A20G A30C U53A C76U U135G | ≤ -4.2
8 | A3G A23G G67A G88C | ≤ -4.2
9 | A3G A17U A28G C35A G88A A121G U148G | ≤ -4.2
10 | A3U U6C A23C G68C C76A C85A G117U | ≤ -4.2
11 | A3U G42C U44A G86A C103G C132U | ≤ -4.2
12 | A3C U6C C32U A49C A147C U148A | ≤ -4.2
13 | A3C A21G A26C A39G A40G U53G C57G G67C C72U C87U U134A | ≤ -4.2
14 | A3U U15C G81U A97U G128U | -3.58
15 | A3U U31A C36G G58U A73G C95U | ≤ -4.2
16 | A3U C36U G46A G94C G136C | ≤ -4.2
17 | A3U G59A U61A C79U G83A A121C | ≤ -4.2
18 | A3C C57G G65A G80A A89G G94C C99G G143U | ≤ -4.2
19 | A3U A20G A28U C54A U55G C72U A106U C116U | ≤ -4.2
20 | A3C A20G A22U C36G A60U C87U G140A | ≤ -4.2
21 | A3U U4A C14A A22U A49U A52G U61A A113C | ≤ -4.2

Row | Variant | polymerase ribozyme fitness (log ratio)
22 | A3C A24C G50U C75U U90G C96U G133U U139A | ≤ -4.2
23 | A3G A49U C85G G124A G140C U148C | ≤ -4.2
24 | A3C A22C C32G C95U C103U A120C A121C U134C | ≤ -4.2
25 | A3U A17G A28U C63A G84A A121C A142U U145A A150C | ≤ -4.2
26 | A3G C8G A23C C54A G80C G81A A89U C93G | ≤ -4.2
27 | A3C C5U A26U U45A A49C U55C G62U C93A C96U | ≤ -4.2
28 | A3U A49C | ≤ -4.2
29 | A3U U4G U6A A29U G50A U104G | ≤ -4.2
30 | A3U G58C G59C C96U C131A | -3.63
31 | A3C C79U C93U C95U | ≤ -4.2
32 | A3G U15C C93G U146G | -2.23
33 | A3U A26U A29U A49C C87U C114U G141A | ≤ -4.2
34 | A3G G11C A20U G34A C85G C93U U146G | ≤ -4.2
35 | A3C C14G C27U C85U U144G | -2.9
36 | A3U U15G U31C U33C G50U C57A G84U C99G C103A A147C U148C | ≤ -4.2
37 | A3G C14G A28C A30G C35A G81U G94A U134A | ≤ -4.2
38 | A3U A30C G48A C54U C87U | ≤ -4.2
39 | A3C C14U A52U U56A C87A A120U G141C | ≤ -4.2
40 | A3C A12U G58C C118U | -1.52
41 | A3C A17C A19U G25C C93U A115G A120U | ≤ -4.2
42 | A3G A12G A16G A22G A29C U55G U61G C75U G92U U130G U151A | ≤ -4.2

Row | Variant | polymerase ribozyme fitness (log ratio)
43 | A3U G143U | -2.76
44 | A3G U15G G25C C36A C87U C114U A115C U146A | ≤ -4.2
45 | U4A A12U A24G G25A C54A G58A C87A C114U A115U A119G C125U U148C | ≤ -4.2
46 | A3G A22C A23U C32G A64C U82A C96G U104A | ≤ -4.2
47 | A3U U7A C14A A41C U45G C69A C87A G94A A121C | ≤ -4.2
48 | A3G C8U A52C G83U C87U | ≤ -4.2
49 | U4A A91U A115G | ≤ -4.2
50 | A3U A64C G68A C87A | ≤ -4.2
51 | A3G A28G A29C G94C G117A C118G | ≤ -4.2
52 | A3U C35A U56C C93U | ≤ -4.2
53 | A3G A29U A30C G42A G141C | ≤ -4.2
54 | A3C C85U G136C | -3.76
55 | U4A A60G C87G U102G A150C | ≤ -4.2
56 | A3C C38U U55G C85G G92U | ≤ -4.2
57 | A3G A39C G50A G86A U145G | ≤ -4.2
58 | A3U C54A | -2.21
59 | A3U A47U G71C C85A C103A | ≤ -4.2
60 | A3C C14U A28C G50C G59U C87U A98U G133U A147U | ≤ -4.2
61 | U4A A19C A89U C96U A138G U146G | ≤ -4.2
62 | A3U G46C U77C G86U A98U A121U U127A | -4.08
63 | A3U A39U U53G C75A G84U C85G C118U | ≤ -4.2

Row | Variant | polymerase ribozyme fitness (log ratio)
64 | A3C C32U C43U U44A U55G G81A C87A | ≤ -4.2
65 | A3C C93A C95G G140A | ≤ -4.2
66 | A3U A22U C35A A73G C125A A147G | ≤ -4.2
67 | A3U C8A A39U A91G U111A A115U G117U | ≤ -4.2
68 | A3U U55A G84A | -0.911
69 | A3U U7C A52C C95U C99U | ≤ -4.2
70 | A3G U44G A113C | ≤ -4.2
71 | A3G A39U G70C G133C | ≤ -4.2
72 | A3U A49G G84C | -3.89
73 | A3U G11U C54U C57U G140U | ≤ -4.2
74 | U4A C79A C123U U148C | ≤ -4.2
75 | A3G A16U C18U U45G U55A G83U C95A C96G U104C U151A | ≤ -4.2
76 | A3G A20C A49U C54U G92A | ≤ -4.2
77 | A3C A16G A21U C43A A60G C93G C125A U139A A142G | ≤ -4.2
78 | A3G A20U A23U A26U G48C C63U C96U C114U | ≤ -4.2
79 | U4A C54A C95A A138C | ≤ -4.2
80 | A3U U15C A17C A26C G74C A106G | ≤ -4.2
81 | A3C G11C G48A A60G A73U C76U G84U C116U A122U U127G | ≤ -4.2
82 | A3U U7G A28U U31G A37U G81A A89G A122G | ≤ -4.2
83 | A3C C10G G59U G80A C85A | ≤ -4.2
